The text below walks through data of the RNAGym collection of RNA variant scans (doi:10.7554/elife.90254).

Read counts are not given, so values of variants with three or more changes are uncertain.

To fix the notation:
B1: LINE1-full (parent)
chain: UACGUAGGUGGUUUUCCCCUGAUAGUGCUAAGGGGGCCUGGAAGUUUGGACUGGGCAGAGCUCAACACAGCGUGGCAAAGUGGCUGUGGCUAGACUGCCUCUCUGGAUUCCUCGUCACUCAGCAGGGCAUCUCUGAGAGAAAUGCC

The variants in this series derive from B1. The series can be described thus: self-cleavage, relative activity (ratio to wild type); higher = more cleavage; in vitro, sequencing; the parent is a self-cleaving ribozyme.
Regarding U62C U87C G125C, the self-cleavage amounted to 0.51.
As for A64G A94G A141G, the self-cleavage is 0.24.
As for C63A A94C A107U, the self-cleavage was determined as 0.02.
On to U62C A69U A129G, for which the self-cleavage turned out to be 0.02.
The value for A64G U85A U104C U119C A124U was 0.37; that for U62C U102A U109C A121G A142G was 0; that for A64C A92U A140G was 0.15.
As to A64G U96C A129G, the self-cleavage came out at 1.53.
The value for A64G U85C A117U was 0.12; that for U62C U115C U130C was 0.18.
For A64G C128G U143A the value was 0.12; for U62C A77G U130C, 0; for U62C A77U A79G, 0.07.
The value for U62C U73C A141G was 0.04; that for U62C C111U U112C was 0.06; that for C63U G75A A136G was 0.28.
As for U62C U132C A142G, the self-cleavage amounted to 0.11.
For U62A U134C A142G the value was 0.07; for U62C U119C A140G, 0.08; for U62C A94U U112A U134C, 0.
In the case of U62C A69U U115A U132C, the self-cleavage is 0.05.
For C63U A107C U112C A138G the value was 0.39; for A64G C71U U85C A129G, 0.11; for A64G A79G U119C, 0.45.
For C63U A107G A124G the value was 0.25; for A64G U85C U112C A141U, 0; for A64G C113A A141G, 0.07.
As for U62C C76A U85C A142G, the self-cleavage was found to be 0.02.
For U62A U108C U132C, the self-cleavage was found to be 0.02.
For U62C A64C A92G the value was 0.
Take A64G C90A C120U: the self-cleavage worked out at 0.
Turning to U62A C113U A117G, the self-cleavage was 0.04.
For the variant U62A U108C C145G, the self-cleavage was found to be 0.
For C63U U85C U112C A117U A141G U143C, the self-cleavage was found to be 0.06.
Regarding U62C A140G A142G, the self-cleavage came to 0.07.
For A64G G86A C118U C128U the value was 0.02; for U62A U73C A94G, 0.22; for A64G U115C A129G U132C, 0.
For U62C U85G A117G A138G the value was 0.
Take U62C G72A A77G: the self-cleavage came to 0.03.
As for U62C U73C A140G, the self-cleavage came to 0.
A64G U96A U143C: the self-cleavage was found to be 0.03.
Regarding U62C A65G A136G, the self-cleavage amounted to 0.
The value for U62A C131U U134C was 0.03.
For A64G G93A U134C A140G U143C, the self-cleavage worked out at 0.02.
Take U62C G70U A79U U132C: the self-cleavage stood at 0.1.
The value for U62C A69U U143C was 0.04; that for U62C A64G A77U was 0.
Take U62C A117U A136G: the self-cleavage turned out to be 0.
The value for U62C A69G A78G was 0; that for U62C U96C A136G was 0.07; that for U62C U108C A136G was 0.
The value for A64G A117U U134C was 0.29; that for U62C A79G U119A U143C was 0.07; that for U62G A65G A107U was 0.
For U62C A64U A141G the value was 0.06; for A64G A65U U73A, 0.01; for U62C A94G U119A U134C, 0.
Consider A64G U104A A107G A138G A140G, for which the self-cleavage was 0.12.
For A64G U115C A136U A141G, the self-cleavage stood at 0.18.
On to A64G U73A G114A C133U, for which the self-cleavage amounted to 0.22.
With A64G G88A U102A A136G, the self-cleavage is 0.04.
The value for A64G A79G G106U was 0.2; that for A64G A77G U112C A136G was 0.35; that for A64G A67G U119C was 0.
The value for U62C U81A A136G was 0.03; that for C63A U112C U115A was 0.05.
As for U62A U73A A79G, the self-cleavage worked out at 0.08.
The value for A64G U87C C95U was 0.
For the variant U62C A64U U87A U132C, the self-cleavage was determined as 0.16.
Take U62C U102C U119C: the self-cleavage was determined as 0.17.
The value for A64U A65G C66U A78G A117G C123A A138G was 0; that for A64G C68U A94G U143C was 0.2; that for U62C A94G U134C U143C was 0.15.
Take U62C U91A A94G: the self-cleavage stood at 0.
The value for U62C U96A A121U U132C was 0.08; that for C63U A69C A79G A138G was 0.01.
With U62A U87C A124G U132A, the self-cleavage amounted to 0.12.
Take U62C A65U G86A A94G A129U A136U: the self-cleavage came to 0.05.
A64G A77G A129U: the self-cleavage amounted to 0.26.
Regarding U62A U85C U132C, the self-cleavage amounted to 0.39.
The value for U62C G97U C116A A142G was 0.02; that for U62C C76U U87C was 0.03; that for A64G U73C C98A was 0.
As to U62C U85G U87A, the self-cleavage is 0.14.
For A64G U96C A117U, the self-cleavage came to 0.07.
Take A64G U134C A142G: the self-cleavage was 0.21.
For U62C A64G C66U the value was 0.03.
For U62C A65G A78G the value was 0; for U62C U73C U132A, 0; for A64G A107G A129G, 0.
For the variant U62C A64U A65G G122C, the self-cleavage was determined as 0.05.
The value for U62A U104A A121U A124G was 0; that for A64G U87A G88U was 0.03; that for U62C A141G A142U was 0.12.
The value for U62A U73C A138G A140U was 0.1; that for A64G U102A A140G was 0.15.
With U62C A67G C113A G125U, the self-cleavage came out at 0.
Regarding U62A U112A U132C A138G, the self-cleavage turned out to be 0.
For U62C C90U U143C, the self-cleavage was 0.04.
For U62C A77G C145U, the self-cleavage was found to be 0.04.
The value for U62C U91A A117U was 0.01; that for U62C C71U U115C was 0; that for A64G A77G U81C was 0.
Turning to C63U U100C A136G A140G, the self-cleavage was 0.43.
For U62C U87G G122U the value was 0.03; for A64G A141G U143C, 0.21.
On to U62A U87C U132A, for which the self-cleavage is 0.05.
The value for U62C U81A A138U was 0.01.
Take U62C U87A A141G: the self-cleavage came out at 0.05.
For U62C A79U U108C, the self-cleavage was 0.03.
Turning to U62C A67G A77U U109C, the self-cleavage is 0.
The value for U62C U102G A141G was 0; that for U62C U87G U100C was 0.2; that for U62C U87A U143A was 0.05.
A64G A77U U81C U109A: the self-cleavage is 0.3.
In the case of U62A U81C A124U A129G A136G, the self-cleavage was 0.
For A64U A67G A77G U134A the value was 0.26.
The value for U62C U100C A138G was 0.05.
On to U62C C95G U104C A129C, for which the self-cleavage is 0.
For U62C C98G U143A the value was 0.27; for A64G A124G A141G, 0.32; for U62C U100C A129G A136U, 0.
A64G A69U A141G: the self-cleavage was 0.01.
Regarding A64G C116U A141G, the self-cleavage amounted to 0.29.
The value for U62C U96A A138G was 0.03; that for A64G A107G U134C was 0.45.
On to A64C U87C A141G, for which the self-cleavage was found to be 0.3.
For U62G U112C G127A, the self-cleavage is 0.12.
With U62C C66U U96A U119C A136G A141G, the self-cleavage is 0.02.
With A64G U73A U85C U102C A141G, the self-cleavage came to 0.17.
The value for A64C A69G U102A A124G was 0; that for A64G C71U A79G was 0.11; that for A64C U112C A121U A129G was 0.35.
C63U A79U U96C: the self-cleavage was 0.1.
For U62C U96A U130C A136G the value was 0; for U62C A78G U102A, 0.12.
In the case of U62C A65G A67U U100C, the self-cleavage was determined as 0.
Regarding U62C C71A A136U A140G, the self-cleavage is 0.02.
The value for C63U A121U U130C U134G A140U was 0.61.
With U62A G80U G89A U96C A117U, the self-cleavage was determined as 0.02.
As for U62C U115C U130A G137A A141G, the self-cleavage amounted to 0.
For A64G A77G U81A U102A A138G the value was 1.23.
Consider U62C A69G A141G, for which the self-cleavage was 0.08.
Consider A64C U91C U130C, for which the self-cleavage is 0.28.
The value for A64G G75A A141G was 0.16; that for C63U U85C U109C was 0.6.
For A64G U73C U130C the value was 0.
For U62C A69G A142G the value was 0.11; for U62C A69G U119C A141G U143C, 0.
Regarding U62C A92U U115A, the self-cleavage amounted to 0.02.
For U62C G86U A124U the value was 0.03.
The value for U62A U132C A141G was 0.02; that for A64G U91C U100C was 0.42.
For U62C G72A U87A A121G A124U A142G the value was 0.01; for A64G U115A A141G, 0.19.
With U62C U108C C113U, the self-cleavage was 0.03.
For C63U A65U U85A the value was 0.05; for U62C U81A A129G, 0.01; for U62A U134C C145U, 0.08.
In the case of U62C C84U A136G, the self-cleavage was determined as 0.05.
For U62C A65U U85C the value was 0.03.
The value for A64G A107G U112A was 0.56.
For U62C A65G A124G the value was 0.2; for A64G A107U A138G A141G, 0.24; for U62A U85A U143C, 0.02.
As to U62C U104C A129G, the self-cleavage turned out to be 0.
